# Inconclusive means that the source gave no clear call. Such entries were picked first, then a sample of the others. For part of these data: A potency beside an inconclusive call is a rough fit, not a confirmed value. Calls of active or inactive are those of the source. Unless noted, the call rests on the fitted dose curve; in most records, active means well fitted curve in the direction sought with a large enough effect in the repeat runs; inconclusive means weak or mixed curves; inactive means no such curve, though single readings can be large; an effect the other way counts as inactive or inconclusive.
# Legend:
# [1] = qHTS assay for identifying genotoxic compounds that show differential cytotoxicity against isogenic chicken DT40 cell lines with known DNA damage response pathways - wild type cell line (AID 743012); conditions: DT40 wild type chicken cells viability, CellTiter-Glo, 40 h; activity change, negative = cytotoxicity: at 68.4 µM (top of the series) unless noted; further: nearly all actives have a fitted effect of over 60% in size; further: potency means the concentration at half of the fitted maximal effect; on activity change, negative = cytotoxicity: on the % scale 0 is the no-effect control and ±100 the full control effect
# Method in brief: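 Parental DNA repair-proficient DT40 cells, 300 per well, were pre-incubated ~0.5 h at 37 C/5% CO2, pin-dosed with compounds in DMSO, then incubated 40 h. Viability was read as CellTiter-Glo luminescence after 30 min at room temperature.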
# [2] = qHTS assay to identify small molecule antagonists of the androgen receptor (AR) signaling pathway - cell viability counter screen (AID 743033; further: potency means the concentration at half of the fitted maximal effect; nearly all actives have a fitted effect of over 45% in size); conditions: AR-bla HEK293 viability, CellTiter-Glo luminescence, 16 h; activity change, negative = cytotoxicity: at 58.5 µM (top of the series)
# [3] = qHTS assay to identify small molecule antagonists of the androgen receptor (AR) signaling pathway using the MDA cell line - cell viability counter screen (AID 743041; further: nearly all actives have a fitted effect of over 45% in size; further: potency means the concentration at half of the fitted maximal effect); conditions: MDA-kb2 viability, CellTiter-Fluor, 16 h, cells co-treated with R1881 androgen agonist; viability change, negative = cytotoxic: at 70.3 µM (top of the series) unless noted
# Method in brief: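 Viability counter screen run alongside the AR antagonist reporter: cells seeded 5 h before compound, R1881 added, 16 h incubation at 37C without CO2, fluorescent CellTiter-Fluor signal quantified.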
# [4] = qHTS assay to identify small molecule antagonists of the thyroid receptor (TR) signaling pathway - cell viability counter screen (AID 743064); conditions: GH3.TRE-Luc viability, CellTiter-Fluor, 24 h; further: nearly all actives have a fitted effect of over 50% in size; further: potency means the concentration at half of the fitted maximal effect; on activity change, negative = cytotoxic: on the % scale 0 is the no-effect control and ±100 the full control effect
# Method in brief: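 GH3.TRE-Luc rat pituitary cells dosed after 4 hr plating, co-stimulated with T3 at 1 nM final, incubated 23.5 h at 37 C. Viability measured in the same wells by CellTiter-Fluor fluorescence after 30 min further at 37 C.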
# [5] = molecular target: Androgen receptor (Homo sapiens) (UniProt P10275); assay: qHTS assay to identify small molecule antagonists of the androgen receptor (AR) signaling pathway (AID 743035; active means well fitted inhibition curve with a large enough effect in the signal ratio in the repeat runs, not every such curve was filed as active; inconclusive means weak or mixed curves, or effect the other way; inactive means no such curve, though single readings can be large or run the other way; the % refers to the signal ratio; further: potency means the concentration at half of the fitted maximal effect; on activity change, negative = inhibition: on the % scale 0 is the no-effect control and ±100 the full control effect); conditions: HEK293 AR-UAS-bla, R1881-stimulated, beta-lactamase FRET, 16 h; activity change, negative = inhibition: at 58.5 µM (top of the series) unless noted
# Method in brief: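 HEK293 cells stably carrying a UAS-driven beta-lactamase reporter (AR-UAS-bla GripTite) were plated for 4 h at 37C, then given compound and the agonist R1881 and incubated 16 h. Reporter activity was read by LiveBLAzer B/G FRET fluorescence after 2 h at room temperature.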
# [6] = molecular target: Androgen receptor (Homo sapiens) (UniProt P10275); assay: qHTS assay to identify small molecule agonists of the androgen receptor (AR) signaling pathway (AID 743036; active means well fitted activation curve with a large enough effect in the signal ratio in the repeat runs, with a control signal flat, not every such curve was filed as active; inconclusive means weak or mixed curves, or effect the other way; inactive means no such curve, though single readings can be large or run the other way; the % refers to the signal ratio; further: on the % scale 0 is the no-effect control and ±100 the full control effect); conditions: HEK293 AR-UAS-bla GripTite, beta-lactamase FRET ratio, 16 h; activation: at 62.4 µM (top of the series) unless noted
# Method in brief: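 AR-UAS-bla HEK293 cells, plated 4 h before dosing, were treated with compound for 16 h at 37C. beta-Lactamase reporter read after 2 h with LiveBLAzer B/G FRET substrate at room temperature.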
# [7] = molecular target: Androgen receptor (Homo sapiens) (UniProt P10275); assay: qHTS assay to identify small molecule antagonists of the androgen receptor (AR) signaling pathway using the MDA cell line (AID 743042; further: potency means the concentration at half of the fitted maximal effect; nearly all actives have a fitted effect of over 55% in size)
# Method in brief: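 MDA-kb2 cells (human breast carcinoma, stably carrying an MMTV-luciferase reporter responsive to AR and GR) were plated at 3,000 cells/well and preincubated 5 hr at 37C, then given compound plus R1881 agonist for 16 h. ONE-Glo luminescence was read.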
# [8] = activity change, negative = cytotoxic: at 70.3 µM (top of the series) unless noted
# Tags describe the fitted curve by direction and shape.
# Chain of UniProt P10275 (P10275 whole entry, looked up): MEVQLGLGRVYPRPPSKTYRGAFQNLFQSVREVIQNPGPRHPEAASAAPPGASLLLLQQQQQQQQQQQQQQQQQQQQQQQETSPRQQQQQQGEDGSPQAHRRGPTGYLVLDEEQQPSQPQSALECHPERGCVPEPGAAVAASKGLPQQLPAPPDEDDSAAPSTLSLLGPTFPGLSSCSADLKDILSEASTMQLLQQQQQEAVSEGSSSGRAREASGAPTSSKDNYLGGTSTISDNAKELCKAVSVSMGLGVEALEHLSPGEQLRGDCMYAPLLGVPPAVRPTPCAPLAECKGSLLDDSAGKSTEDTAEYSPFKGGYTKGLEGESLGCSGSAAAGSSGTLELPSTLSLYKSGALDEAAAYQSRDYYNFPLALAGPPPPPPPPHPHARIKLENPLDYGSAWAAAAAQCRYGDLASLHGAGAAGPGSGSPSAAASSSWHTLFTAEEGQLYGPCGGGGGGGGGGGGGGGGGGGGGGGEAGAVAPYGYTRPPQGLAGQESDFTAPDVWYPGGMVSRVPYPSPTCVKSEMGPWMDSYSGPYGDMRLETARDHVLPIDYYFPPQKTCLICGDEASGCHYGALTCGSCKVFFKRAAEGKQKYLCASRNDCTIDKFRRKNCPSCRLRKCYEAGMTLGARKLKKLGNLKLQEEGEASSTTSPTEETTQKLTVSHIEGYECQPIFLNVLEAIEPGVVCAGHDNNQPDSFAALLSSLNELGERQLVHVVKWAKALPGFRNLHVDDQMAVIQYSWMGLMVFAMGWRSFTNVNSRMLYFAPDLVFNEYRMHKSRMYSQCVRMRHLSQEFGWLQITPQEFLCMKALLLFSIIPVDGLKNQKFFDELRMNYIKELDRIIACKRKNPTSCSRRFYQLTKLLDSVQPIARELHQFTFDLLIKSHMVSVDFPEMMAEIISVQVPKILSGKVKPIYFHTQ
structure (smiles),measurement,setting,value
Cc1c[nH]c(=S)[nH]c1=O,"activity change, negative = cytotoxicity",[1],inconclusive: 32.3%
same,Potency,[2],"inconclusive: 61.8 µM [cytotoxic, single point]"
same,Potency,[3],"inconclusive: 30.7 µM [rising, partial curve, poor fit]"
CC(C(O)c1ccccc1)N(C)CCOC(c1ccccc1)c1ccccc1 (stereo not given),Potency,[1],active: 5.31 µM
same,Potency,[2],"inconclusive: 21.3 µM [cytotoxic, partial curve]"
same,Potency,[3],active: 26.6 µM
same,Potency,[4]; [8],active: 11.9 µM
CC1COC(=O)O1 (stereo not given),Potency,[1],inactive
same,Potency,[5],inactive
same,"activity change, negative = cytotoxic",[4]; [8],inconclusive: 54% [at 95 µM]
same,"activity change, negative = cytotoxic",[4]; at 70.3 µM (top of the series),inactive: -12.8%
CN1C(=O)c2ccccc2C1=O,Potency,[1],"inconclusive: 30.6 µM [rising, full curve, poor fit]"
same,Potency,[2],"inconclusive: 54.9 µM [cytotoxic, single point]"
same,Potency,[4]; [8],"inconclusive: 0.243 µM [rising, full curve, poor fit]"
c1ccc(-c2ccccn2)nc1,Potency,[1],"inconclusive: 21.7 µM [cytotoxic, partial curve]"
same,Potency,[5],"inconclusive: 54.9 µM [falling, single point]"
same,Potency,[6],inactive
Cc1cc(C)cc(N)c1,Potency,[1],inactive
same,Potency,[6],inactive
same,Potency,[4]; [8],inactive
CNC(=O)c1ccccc1Sc1ccc2c(/C=C/c3ccccn3)n[nH]c2c1,Potency,[1],active: 2.11 µM
same,Potency,[3],inactive
Cc1ccsc1/C=C/C1=NCCCN1C,Potency,[1],inactive
same,Potency,[3],inactive
O=[N+]([O-])c1cc(C2CCCCC2)c(O)c([N+](=O)[O-])c1,Potency,[1],active: 17.2 µM
same,Potency,[2],"inconclusive: 7.74 µM [cytotoxic, full curve]"
same,Potency,[5],active: 5.48 µM
same,activation,[6],inconclusive: -25.3%
same,Potency,[7],active: 12.2 µM
same,Potency,[4]; [8],active: 9.66 µM

# Reference: PubChem BioAssay (Tox21)
